The source of these data is ChEMBL document CHEMBL4888484, “Replenishing the malaria drug discovery pipeline: Screening and hit evaluation of the MMV Hit Generation Library 1 (HGL1) against asexual blood stage Plasmodium falciparum ,using a nano luciferase reporter read-out” (2022).

The term % Inhibition denotes the relative decrease from the control value, in per cent.

Screen size: about 150,000 compounds; about 540 (0.36%) showed an effect of 50% or more. The list shows a part of the results.

The assay relates to Plasmodium falciparum. Put plainly: Primary screen in NF54 nanoGlo assay, in single point, at 2uM, 72h; a lower Z score goes with more inhibition. The note with it: timepoint 72 hour. It is filed as functional, Erythrocyte.
Regarding `O=S(=O)(c1cn[nH]c1)N1CCN(CC(F)(F)F)CC1`, the “% Inhibition” value is recorded as -9% and the Z score worked out at 1.12.

Turning to `Cc1ccc2[nH]cc(-c3ncccc3C(=O)N3CCCC3)c2c1`, the “% Inhibition” value is given as -1% and the Z score was 0.09.

`C[C@H](NC(=O)Cn1cnc(C#N)n1)c1ccco1`: the “% Inhibition” value turned out to be 9% and the Z score was -0.83.

As for `O=C1NC[C@@H](C2CCCCCC2)C(=O)N1Cc1cnn(CCF)c1`, the “% Inhibition” value is -11% and the Z score stood at 2.02.

Consider `O=C(c1cc2nc(-c3ccc4c(c3)OCO4)cc(C(F)(F)F)n2n1)N1CCN(c2ccccc2Cl)CC1`, for which the “% Inhibition” value is -7% and the Z score was 0.76.

For `NC(=O)c1cncc(N2CC[C@@]3(CCCN(CCc4ccccc4)C3)C2)n1`, the “% Inhibition” value was -6% and the Z score was 0.84.

Consider `COc1ccc(F)c(CN2CCC[C@@]3(CCN(C(=O)C4CCCC4)C3)C2)c1`, for which the “% Inhibition” value is -2% and the Z score was found to be 0.2.

Consider `COc1ccc(-c2cc(C(F)F)nc(N3CCC(C(=O)O)CC3)n2)cc1OC`, for which the “% Inhibition” value was -49% and the Z score stood at 5.71.

Regarding `O=C(Nc1ccccc1Cc1ccccc1)C1=NN(c2ccccc2)C(=O)CC1`, the “% Inhibition” value was determined as 2% and the Z score is listed as -0.24.

With `CN1CCN(C)[C@@H](CC(=O)N(C)Cc2nc3ccccc3o2)C1`, the “% Inhibition” value is -12% and the Z score is 1.27.

In the case of `CC[C@@H](CO)N(Cc1ccc(C)s1)C(=O)c1ccnn1C(F)F`, the “% Inhibition” value is -1% and the Z score stood at 0.13.

Consider `CCN(CC(=O)NC)C(=O)CN(C)S(=O)(=O)c1ccc(C#N)cc1`, for which the “% Inhibition” value is given as 4% and the Z score was -0.61.

For `Cc1ccccc1-c1cccc(C(=O)N2CCC3(CCC(=O)N(C)C3)CC2)c1`, the “% Inhibition” value is -9% and the Z score came to 1.72.

Regarding `O=C(NCC12CCCCC1C2)C1CCc2nncn2CC1` (centres undefined), the “% Inhibition” value is listed as -5% and the Z score is given as 0.49.

For `O=C(c1ccnn1CC(F)(F)F)N1CCc2ncccc21`, the “% Inhibition” value is recorded as -7% and the Z score came to 1.4.

For the compound `Cc1cccc(CNC(=O)NCc2cc[nH]n2)c1Br`, the “% Inhibition” value was determined as 27% and the Z score is listed as -3.01.

On to `COC(=O)C[C@@H]1Oc2ccccc2N(Cc2cncs2)C1=O`, for which the “% Inhibition” value was -11% and the Z score was found to be 1.32.

On to `Cc1ccncc1CC(=O)N1CCC[C@H](Nc2cccc(Br)c2)C1`, for which the “% Inhibition” value was -12% and the Z score turned out to be 1.67.

For the compound `COCc1noc(CNC(=O)Nc2ccnn2C[C@@H]2CC=CCC2)n1`, the “% Inhibition” value was -3% and the Z score turned out to be 0.4.

As to `CS(=O)(=O)NCCc1ccsc1`, the “% Inhibition” value is -9% and the Z score is reported as 1.21.

`COc1cc(-c2nc(CN(C)[C@@H](C)c3ccon3)c(C)o2)ccc1F`: the “% Inhibition” value is 3% and the Z score is -0.65.

`CC(=O)c1cc(C(=O)[C@H](C#N)c2ccccn2)n(C)c1`: the “% Inhibition” value is -7% and the Z score is reported as 1.01.

As to `O=C(COc1ccccc1)Nc1nnc([C@@H]2CCCO2)o1`, the “% Inhibition” value was 0% and the Z score is given as -0.05.

As for `COc1cccc(-c2nccn2[C@@H](C)Cc2cc(C)n[nH]2)c1OC`, the “% Inhibition” value was found to be 6% and the Z score was -0.77.

Take `O=C(CCCN1CCC2(CC1)c1ccccc1C[C@@H]2O)c1ccc(F)cc1`: the “% Inhibition” value is -5% and the Z score was determined as 0.88.

For the compound `COC(=O)[C@@H](C)CS(=O)(=O)Nc1cnoc1-c1ccccc1`, the “% Inhibition” value is listed as 0% and the Z score is reported as 0.03.

`O=C(c1ccco1)N1CC[C@H](S(=O)(=O)c2ccccc2)C1`: the “% Inhibition” value is listed as -14% and the Z score turned out to be 2.37.

For `CCn1nc(C)cc1S(=O)(=O)N1CC[C@]23C(=O)N(CC(=O)NCCCOc4cccc(c4)[C@H]12)c1ccccc13`, the “% Inhibition” value is reported as -7% and the Z score is given as 1.31.

Consider `Cc1ccc(NC(=O)CN(C)C2CCCCCC2)c(Br)c1`, for which the “% Inhibition” value is on record as 0% and the Z score was -0.05.

Consider `O=C(NCc1ccc(F)cc1)C1C2CCC(C2)N1S(=O)(=O)c1ccc2c(c1)OCCO2` (centres undefined), for which the “% Inhibition” value is recorded as -5% and the Z score is recorded as 0.87.

Take `CCO[C@H]1CCCN(S(=O)(=O)c2ccc3c(c2)CCC(=O)N3)C1`: the “% Inhibition” value is on record as -1% and the Z score is on record as 0.22.

Turning to `O=C(c1cccs1)N1CCCn2cc(-c3ccccc3F)nc21`, the “% Inhibition” value was -10% and the Z score is given as 1.79.

With `C#CCC(NS(=O)(=O)c1ccc(OC)c(C2(C)NC(=O)NC2=O)c1)c1ccccc1` (centres undefined), the “% Inhibition” value is 11% and the Z score is recorded as -1.01.

For the compound `O=C(c1ccccn1)N1CC(N2C(=O)COC2=O)C1`, the “% Inhibition” value was 23% and the Z score is -2.59.

On to `CNc1ncccc1CN(C)CCOc1cc(C)ccc1C`, for which the “% Inhibition” value is -5% and the Z score is 0.71.

As to `COCC(C)S(=O)(=O)N1CCOC(C2CCC2)C1` (centres undefined), the “% Inhibition” value stood at 12% and the Z score was -1.46.

Consider `CC(C)=CC1C(C(=O)N2CCC(CN(C)C(C)C)CC2)C1(C)C` (centres undefined), for which the “% Inhibition” value is given as -17% and the Z score amounted to 1.49.

`C[C@H]1CN(C(=O)C2(C#N)CCC2)CCN1C(=O)C1(C#N)CCC1`: the “% Inhibition” value is on record as -10% and the Z score is given as 1.6.

`C[C@H]1CCCN(C(=O)CS(=O)(=O)c2cccc(Cl)c2)C1`: the “% Inhibition” value is -4% and the Z score came out at 0.8.

With `Cc1cncnc1C1CCN(C(=O)c2ccc(C#N)nc2)CC1`, the “% Inhibition” value is -20% and the Z score is 2.31.

As to `OCCn1nc(Cc2cccc(Cl)c2)nc1CN1CCCCCC1`, the “% Inhibition” value is -8% and the Z score was determined as 1.08.

Take `Cc1ccc(C)c([C@@H]2CC(=O)Nc3nc(N4CCN(CCO)CC4)nc(O)c32)c1`: the “% Inhibition” value was -7% and the Z score turned out to be 1.12.
